# Measured values from the supplement of paper PMC8728848.
# This is one part of the list.
# B1: PX14375C-bth-509-28-509 (Bacteroides thetaiotaomicron) (protein)
# chain: RSPQGQFTEDDNPNALVNGKIYNVYTMMRSFDITAGTPAIAIHYLRSEDSEKGSIPSDGSDVAEMYDDFLYTPTNGLLGSYWGKNYAIIYQCNDILDAIAEKETAGQTETEDIINKGEASFFRAYCYFNLVRAFGEVPLVTYKINDASEANIPKTTADKIYEQIDTDLKTAEESLPETWSTEYTGRLTWGAARSLHARTYMMRSDWDNMYKASTDVINKGLYNLKTPYNEIFTDDGENSGGSIFELQCTATAALPQSDVIGSQFCEVQGVRGAGQWDLGWGWHMATQLMADAYETGDPRKNATLLYFRKTDDEPITPENTNEPYGESPISPAMGAYFNKKAYTDPALRKEYTNKGFWVNIRLIRYSDVVLMAAEAANEKNIPGEAVDYLEMVRARARGTNTNILPKITTNDQGELREAIRHERRVELGLEPDRFYDLVRWGIASEVLHAAGKVNYQDKNALLPLPQSEIDKSKGVLVQNPDY
# What was measured:
# Test in all cases: glycan array binding signal (z-score within array); higher = stronger binding
# Details in all cases: glycan notation: IUPAC condensed, linker removed
# [1] = biological target: Gal(b1-4)GlcNAc(b1-2)[Gal(b1-4)GlcNAc(b1-6)]Man(a1-6)[GlcNAc(b1-4)][Gal(b1-4)GlcNAc(b1-2)Man(a1-3)]Man(b1-4)GlcNAc(b1-4)GlcNAc
# Method in brief: (§1)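 Columns mapping to the same glycan were averaged after glycan names were converted to IUPAC-condensed notation. The data come from 3228 arrays in the Consortium for Functional Glycomics database, limited to those with an available protein sequence. Binding is reported as a within-array Z-score averaged across arrays of one protein sequence and across linkers.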
# [2] = biological target: Gal(b1-4)GlcNAc(b1-2)[Gal(b1-4)GlcNAc(b1-6)]Man(a1-6)[GlcNAc(b1-4)][Gal(b1-4)GlcNAc(b1-2)[Gal(b1-4)GlcNAc(b1-4)]Man(a1-3)]Man(b1-4)GlcNAc(b1-4)[Fuc(a1-6)]GlcNAc
# Method in brief: as §1
# [3] = biological target: Gal(b1-4)GlcNAc(b1-3)Gal(b1-3)GalNAc
# Method in brief: as §1
# [4] = biological target: Gal(b1-4)GlcNAc(b1-3)Gal(b1-3)GlcNAc
# Method in brief: as §1
# [5] = biological target: Gal(b1-4)GlcNAc(b1-3)Gal(b1-4)Glc
# Method in brief: as §1
# [6] = biological target: Gal(b1-4)GlcNAc(b1-3)Gal(b1-4)GlcNAc
# Method in brief: as §1
# [7] = biological target: Gal(b1-4)GlcNAc(b1-3)Gal(b1-4)GlcNAc(b1-2)Man(a1-3)[Gal(b1-4)GlcNAc(b1-3)Gal(b1-4)GlcNAc(b1-2)Man(a1-6)]Man(b1-4)GlcNAc(b1-4)GlcNAc
# Method in brief: as §1
# [8] = biological target: Gal(b1-4)GlcNAc(b1-3)Gal(b1-4)GlcNAc(b1-2)Man(a1-3)[Gal(b1-4)GlcNAc(b1-3)Gal(b1-4)GlcNAc(b1-2)Man(a1-6)]Man(b1-4)GlcNAc(b1-4)[Fuc(a1-6)]GlcNAc
# Method in brief: as §1
# [9] = biological target: Gal(b1-4)GlcNAc(b1-3)Gal(b1-4)GlcNAc(b1-2)[Gal(b1-4)GlcNAc(b1-3)Gal(b1-4)GlcNAc(b1-6)]Man(a1-6)[Gal(b1-4)GlcNAc(b1-3)Gal(b1-4)GlcNAc(b1-2)Man(a1-3)]Man(b1-4)GlcNAc(b1-4)GlcNAc
# Method in brief: as §1
# [10] = biological target: Gal(b1-4)GlcNAc(b1-3)Gal(b1-4)GlcNAc(b1-2)[Gal(b1-4)GlcNAc(b1-3)Gal(b1-4)GlcNAc(b1-6)]Man(a1-6)[Gal(b1-4)GlcNAc(b1-3)Gal(b1-4)GlcNAc(b1-2)Man(a1-3)]Man(b1-4)GlcNAc(b1-4)[Fuc(a1-6)]GlcNAc
# Method in brief: as §1
# [11] = biological target: Gal(b1-4)GlcNAc(b1-3)Gal(b1-4)GlcNAc(b1-3)Gal(b1-4)GlcNAc
# Method in brief: as §1
# [12] = biological target: Gal(b1-4)GlcNAc(b1-3)Gal(b1-4)GlcNAc(b1-3)Gal(b1-4)GlcNAc(b1-2)Man(a1-3)[Gal(b1-4)GlcNAc(b1-3)Gal(b1-4)GlcNAc(b1-3)Gal(b1-4)GlcNAc(b1-2)Man(a1-6)]Man(b1-4)GlcNAc(b1-4)GlcNAc
# Method in brief: as §1
# [13] = biological target: Gal(b1-4)GlcNAc(b1-3)Gal(b1-4)GlcNAc(b1-3)Gal(b1-4)GlcNAc(b1-2)Man(a1-3)[Gal(b1-4)GlcNAc(b1-3)Gal(b1-4)GlcNAc(b1-3)Gal(b1-4)GlcNAc(b1-2)Man(a1-6)]Man(b1-4)GlcNAc(b1-4)[Fuc(a1-6)]GlcNAc
# Method in brief: as §1
# [14] = biological target: Gal(b1-4)GlcNAc(b1-3)Gal(b1-4)GlcNAc(b1-3)Gal(b1-4)GlcNAc(b1-2)[Gal(b1-4)GlcNAc(b1-3)Gal(b1-4)GlcNAc(b1-3)Gal(b1-4)GlcNAc(b1-6)]Man(a1-6)[Gal(b1-4)GlcNAc(b1-3)Gal(b1-4)GlcNAc(b1-3)Gal(b1-4)GlcNAc(b1-2)Man(a1-3)]Man(b1-4)GlcNAc(b1-4)[Fuc(a1-6)]GlcNAc
# Method in brief: as §1
# [15] = biological target: Gal(b1-4)GlcNAc(b1-3)Gal(b1-4)GlcNAc(b1-3)Gal(b1-4)GlcNAc(b1-3)Gal(b1-4)GlcNAc(b1-2)Man(a1-3)[Gal(b1-4)GlcNAc(b1-3)Gal(b1-4)GlcNAc(b1-3)Gal(b1-4)GlcNAc(b1-3)Gal(b1-4)GlcNAc(b1-2)Man(a1-6)]Man(b1-4)GlcNAc(b1-4)GlcNAc
# Method in brief: as §1
# [16] = biological target: Gal(b1-4)GlcNAc(b1-3)Gal(b1-4)GlcNAc(b1-3)Gal(b1-4)GlcNAc(b1-3)Gal(b1-4)GlcNAc(b1-2)Man(a1-3)[Gal(b1-4)GlcNAc(b1-3)Gal(b1-4)GlcNAc(b1-3)Gal(b1-4)GlcNAc(b1-3)Gal(b1-4)GlcNAc(b1-2)Man(a1-6)]Man(b1-4)GlcNAc(b1-4)[Fuc(a1-6)]GlcNAc
# Method in brief: as §1
# [17] = biological target: Gal(b1-4)GlcNAc(b1-3)Gal(b1-4)GlcNAc(b1-3)Gal(b1-4)GlcNAc(b1-3)Gal(b1-4)GlcNAc(b1-2)[Gal(b1-4)GlcNAc(b1-3)Gal(b1-4)GlcNAc(b1-3)Gal(b1-4)GlcNAc(b1-3)Gal(b1-4)GlcNAc(b1-6)]Man(a1-6)[Gal(b1-4)GlcNAc(b1-3)Gal(b1-4)GlcNAc(b1-3)Gal(b1-4)GlcNAc(b1-3)Gal(b1-4)GlcNAc(b1-2)Man(a1-3)]Man(b1-4)GlcNAc(b1-4)[Fuc(a1-6)]GlcNAc
# Method in brief: as §1
# [18] = biological target: Gal(b1-4)GlcNAc(b1-3)Gal(b1-4)GlcNAc(b1-3)Gal(b1-4)GlcNAc(b1-3)Gal(b1-4)GlcNAc(b1-3)Gal(b1-4)GlcNAc(b1-2)Man(a1-3)[Gal(b1-4)GlcNAc(b1-3)Gal(b1-4)GlcNAc(b1-3)Gal(b1-4)GlcNAc(b1-3)Gal(b1-4)GlcNAc(b1-3)Gal(b1-4)GlcNAc(b1-2)Man(a1-6)]Man(b1-4)GlcNAc(b1-4)GlcNAc
# Method in brief: as §1
# [19] = biological target: Gal(b1-4)GlcNAc(b1-3)Gal(b1-4)GlcNAc(b1-3)Gal(b1-4)GlcNAc(b1-3)Gal(b1-4)GlcNAc(b1-3)Gal(b1-4)GlcNAc(b1-2)Man(a1-3)[Gal(b1-4)GlcNAc(b1-3)Gal(b1-4)GlcNAc(b1-3)Gal(b1-4)GlcNAc(b1-3)Gal(b1-4)GlcNAc(b1-3)Gal(b1-4)GlcNAc(b1-2)Man(a1-6)]Man(b1-4)GlcNAc(b1-4)[Fuc(a1-6)]GlcNAc
# Method in brief: as §1
# [20] = biological target: Gal(b1-4)GlcNAc(b1-3)Gal(b1-4)GlcNAc(b1-3)Gal(b1-4)GlcNAc(b1-3)Gal(b1-4)GlcNAc(b1-3)Gal(b1-4)GlcNAc(b1-2)[Gal(b1-4)GlcNAc(b1-3)Gal(b1-4)GlcNAc(b1-3)Gal(b1-4)GlcNAc(b1-3)Gal(b1-4)GlcNAc(b1-3)Gal(b1-4)GlcNAc(b1-6)]Man(a1-6)[Gal(b1-4)GlcNAc(b1-3)Gal(b1-4)GlcNAc(b1-3)Gal(b1-4)GlcNAc(b1-3)Gal(b1-4)GlcNAc(b1-3)Gal(b1-4)GlcNAc(b1-2)Man(a1-3)]Man(b1-4)GlcNAc(b1-4)[Fuc(a1-6)]GlcNAc
# Method in brief: as §1
# [21] = biological target: Gal(b1-4)GlcNAc(b1-3)Gal(b1-4)GlcNAc(b1-3)Gal(b1-4)GlcNAc(b1-3)Gal(b1-4)GlcNAc(b1-3)Gal(b1-4)GlcNAc(b1-3)Gal(b1-4)GlcNAc(b1-2)Man(a1-3)[Gal(b1-4)GlcNAc(b1-3)Gal(b1-4)GlcNAc(b1-3)Gal(b1-4)GlcNAc(b1-3)Gal(b1-4)GlcNAc(b1-3)Gal(b1-4)GlcNAc(b1-3)Gal(b1-4)GlcNAc(b1-2)Man(a1-6)]Man(b1-4)GlcNAc(b1-4)GlcNAc
# Method in brief: as §1
# [22] = biological target: Gal(b1-4)GlcNAc(b1-3)Gal(b1-4)GlcNAc(b1-3)GalNAc
# Method in brief: as §1
# [23] = biological target: Gal(b1-4)GlcNAc(b1-3)Gal(b1-4)GlcNAc(b1-3)[Gal(b1-4)GlcNAc(b1-3)Gal(b1-4)GlcNAc(b1-6)]GalNAc
# Method in brief: as §1
# [24] = biological target: Gal(b1-4)GlcNAc(b1-3)Gal(b1-4)GlcNAc(b1-6)[Gal(b1-3)]GalNAc
# Method in brief: as §1
# [25] = biological target: Gal(b1-4)GlcNAc(b1-3)Gal(b1-4)[Fuc(a1-3)]GlcNAc(b1-3)Gal(b1-4)[Fuc(a1-3)]GlcNAc
# Method in brief: as §1
# [26] = biological target: Gal(b1-4)GlcNAc(b1-3)GalNAc
# Method in brief: as §1
# [27] = biological target: Gal(b1-4)GlcNAc(b1-3)[Fuc(a1-3)GlcNAc(b1-6)]Gal(b1-4)Glc
# Method in brief: as §1
# [28] = biological target: Gal(b1-4)GlcNAc(b1-3)[Gal(b1-4)GlcNAc(b1-6)]Gal(b1-4)GlcNAc
# Method in brief: as §1
# [29] = biological target: Gal(b1-4)GlcNAc(b1-3)[GlcNAc(b1-6)]Gal(b1-4)GlcNAc
# Method in brief: as §1
# [30] = biological target: Gal(b1-4)GlcNAc(b1-6)Gal(b1-4)GlcNAc
# Method in brief: as §1
# [31] = biological target: Gal(b1-4)GlcNAc(b1-6)GalNAc
# Method in brief: as §1
# [32] = biological target: Gal(b1-4)GlcNAc(b1-6)[Gal(b1-3)]GalNAc
# Method in brief: as §1
# [33] = biological target: Gal(b1-4)GlcNAc(b1-6)[Gal(b1-4)GlcNAc(b1-3)]GalNAc
# Method in brief: as §1
# [34] = biological target: Gal(b1-4)GlcNAc6P
# Method in brief: as §1
# [35] = biological target: Gal(b1-6)Gal
# Method in brief: as §1
# [36] = biological target: Gal3S(b1-3)GalNAc
# Method in brief: as §1
# [37] = biological target: Gal3S(b1-3)GlcNAc
# Method in brief: as §1
# [38] = biological target: Gal3S(b1-3)[Fuc(a1-4)]GlcNAc
# Method in brief: as §1
binder,measurement,setting,value
B1,glycan array binding signal (z-score),[1],0.464
same,glycan array binding signal (z-score),[2],-0.158
same,glycan array binding signal (z-score),[3],-0.287
same,glycan array binding signal (z-score),[4],-0.374
same,glycan array binding signal (z-score),[5],-0.402
same,glycan array binding signal (z-score),[6],-0.247
same,glycan array binding signal (z-score),[7],4.35
same,glycan array binding signal (z-score),[8],1.31
same,glycan array binding signal (z-score),[9],-0.127
same,glycan array binding signal (z-score),[10],12.3
same,glycan array binding signal (z-score),[11],-0.324
same,glycan array binding signal (z-score),[12],0.774
same,glycan array binding signal (z-score),[13],0.071
same,glycan array binding signal (z-score),[14],2.29
same,glycan array binding signal (z-score),[15],0.053
same,glycan array binding signal (z-score),[16],0.041
same,glycan array binding signal (z-score),[17],2.23
same,glycan array binding signal (z-score),[18],3.46
same,glycan array binding signal (z-score),[19],0.535
same,glycan array binding signal (z-score),[20],0.66
same,glycan array binding signal (z-score),[21],1.46
same,glycan array binding signal (z-score),[22],-0.224
same,glycan array binding signal (z-score),[23],0.467
same,glycan array binding signal (z-score),[24],0.36
same,glycan array binding signal (z-score),[25],-0.01
same,glycan array binding signal (z-score),[26],0.281
same,glycan array binding signal (z-score),[27],-0.233
same,glycan array binding signal (z-score),[28],-0.178
same,glycan array binding signal (z-score),[29],-0.337
same,glycan array binding signal (z-score),[30],-0.054
same,glycan array binding signal (z-score),[31],-0.255
same,glycan array binding signal (z-score),[32],-0.389
same,glycan array binding signal (z-score),[33],0.017
same,glycan array binding signal (z-score),[34],0.035
same,glycan array binding signal (z-score),[35],-0.231
same,glycan array binding signal (z-score),[36],-0.553
same,glycan array binding signal (z-score),[37],-0.183
same,glycan array binding signal (z-score),[38],-0.117
